In all, about 310,000 compounds went through this assay and about 2,200 (0.71%) showed an effect of 50% or more. Effects have a minus sign here. This is one part of the list.
Target: human ether-à-go-go-related gene (hERG) potassium channel (human, UniProt Q12809)
Assay: primary screen, population patch clamp on CHO cells stably expressing hERG

Chain of human ether-à-go-go-related gene (hERG) potassium channel (Q12809 whole entry, looked up): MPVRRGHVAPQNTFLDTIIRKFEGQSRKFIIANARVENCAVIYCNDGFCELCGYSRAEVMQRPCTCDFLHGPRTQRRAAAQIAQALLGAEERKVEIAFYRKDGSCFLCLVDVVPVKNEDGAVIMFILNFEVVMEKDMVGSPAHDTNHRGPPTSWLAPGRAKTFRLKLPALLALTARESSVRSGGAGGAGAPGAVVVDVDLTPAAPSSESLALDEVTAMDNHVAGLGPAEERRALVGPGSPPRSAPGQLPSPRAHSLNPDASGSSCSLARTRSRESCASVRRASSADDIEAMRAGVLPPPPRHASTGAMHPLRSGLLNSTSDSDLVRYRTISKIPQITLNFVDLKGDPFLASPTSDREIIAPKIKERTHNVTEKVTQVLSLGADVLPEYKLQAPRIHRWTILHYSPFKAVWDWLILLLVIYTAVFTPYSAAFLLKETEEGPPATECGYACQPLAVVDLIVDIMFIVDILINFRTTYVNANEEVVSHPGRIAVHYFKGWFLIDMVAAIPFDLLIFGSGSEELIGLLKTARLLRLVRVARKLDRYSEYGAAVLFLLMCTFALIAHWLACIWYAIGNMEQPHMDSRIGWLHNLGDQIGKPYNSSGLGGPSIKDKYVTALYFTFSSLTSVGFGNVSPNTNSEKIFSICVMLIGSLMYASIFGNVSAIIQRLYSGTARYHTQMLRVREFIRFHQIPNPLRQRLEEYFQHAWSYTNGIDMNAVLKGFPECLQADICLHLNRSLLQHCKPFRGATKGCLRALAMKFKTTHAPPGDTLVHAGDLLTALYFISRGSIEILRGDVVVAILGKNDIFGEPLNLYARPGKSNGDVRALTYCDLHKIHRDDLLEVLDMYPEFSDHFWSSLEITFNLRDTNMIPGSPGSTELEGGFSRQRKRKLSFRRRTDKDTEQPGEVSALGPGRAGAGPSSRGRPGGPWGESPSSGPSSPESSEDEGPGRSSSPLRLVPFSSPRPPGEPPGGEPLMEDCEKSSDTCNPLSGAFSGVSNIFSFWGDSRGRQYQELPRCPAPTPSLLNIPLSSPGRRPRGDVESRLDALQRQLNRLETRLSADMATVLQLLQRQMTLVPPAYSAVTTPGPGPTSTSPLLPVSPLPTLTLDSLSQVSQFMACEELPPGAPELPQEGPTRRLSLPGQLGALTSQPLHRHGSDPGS

| Structure (SMILES) | hERG current change (%, negative = inhibition) at 1uM [%] |
| --- | --- |
| N=C1S/C(=C\c2cn[nH]c2-c2ccc(F)cc2)C(=O)N1c1ccccc1F | 6.37 |
| Cc1ccc(C)c(-n2ccnc2SCC(N)=O)c1 | 11.4 |
| CCCCN(C)C(=O)c1nc2ccccn2c1CN1CCC[C@H]1CO | 7.66 |
| O=C(COc1ccc(S(=O)(=O)N2CCCC2)cc1Cl)NCc1ccco1 | 7.82 |
| CC(=O)c1c(C)[nH]c(C(=O)COC(=O)c2nccnc2N)c1C | -0.474 |
| O=C(NCCO)c1nc(C(=O)c2ccc(Cl)cc2)c2ccccc2n1 | 12.4 |
| C=CCn1c(C(CC(C)C)CC(C)O)n[nH]c1=S (centres unmarked) | 2.61 |
| Cc1cc2oc3ccc(NCCCN4CCOCC4)cc3c(=O)c2cc1C | 10.4 |
| Cc1ccc2nc(Cn3cc(C(F)(F)F)ccc3=O)cc(=O)n2c1 | 1.21 |
| O=C1c2cccc(OCC(=O)N3N=C(c4cccs4)CC3c3ccc(F)cc3)c2CCN1Cc1cccnc1 (centres unmarked) | 2.06 |
| CC(C)(C)n1nc(C2CC2)cc1NC(=O)Nc1ccc(Cl)cc1 | 22.3 |
| Cc1cc(=O)cc(C)n1-c1ccc(Br)cc1 | 14.4 |
| O=C(Cn1c(=O)cnc2ccccc21)NCC(=O)Nc1ccc(F)c(F)c1 | 11.1 |
| COC(=O)c1noc(C)c1-c1ccnn1C(=O)c1ccc(Cl)cc1 | 6.16 |
| COc1ccc(C2c3ccc4ccccc4c3Oc3ncn(CCO)c(=N)c32)cc1 (centres unmarked) | -61.7 |
| Cc1ccccc1NS(=O)(=O)c1cc(C(=O)NCCC2=CCCCC2)ccc1C | -2.3 |
| NNC(=O)Cn1nc(-c2ccccc2)c2ccccc2c1=O | 14.6 |
| O=C1C(C2=NC(C(=O)O)C3C(=O)N(c4ccccc4)C(=O)C23)=C(O)c2ccccc21 (centres unmarked) | 0.635 |
| Cc1ccc(C)c(CN2C(=O)c3ccccc3S(=O)c3ccc(C(=O)NCCCN4CCCC4)cc32)c1 (centres unmarked) | 1.58 |
| O=C(COC(=O)/C=C/c1ccc(C(F)(F)F)cc1)NC(=O)NCc1ccco1 | 14.2 |
| CC1Oc2ccccc2N(CC(=O)NCCc2ccccc2)C1=O (centres unmarked) | 11 |
| O=C(Nc1ccc(COc2ccccc2)cc1)c1cccc([N+](=O)[O-])c1 | 8.51 |

| Structure (SMILES) | hERG current change (%, negative = inhibition) at 1uM [%] |
| --- | --- |
| Cn1c(CNC(=O)c2ccco2)nnc1SCC(=O)N1CCN(c2ccccc2F)CC1 | 14.2 |
| O=C(O)c1c2c(nc3ccccc13)/C(=C/c1ccc(O)cc1)CC2 | 8.2 |
| O=C1CC(c2ccccc2)CC(=O)N1c1ccc(C(F)(F)F)cc1 | 9.63 |
| Cc1cc(C(F)(F)F)nn1CC(=O)NNC(=S)Nc1ccc(Cl)cc1 | 20.1 |
| CC1=C(C(=O)OCc2ccccc2)C(c2ccccc2[N+](=O)[O-])NC(=O)N1C (centres unmarked) | 14.5 |
| Cc1cc2oc(=O)cc(CN(C)Cc3ccccc3Cl)c2cc1C | 10.2 |
| CC1CCN(S(=O)(=O)c2ccc(NC(=O)CNC3CCCCC3)cc2)CC1 | 12 |
| Cc1cccc2c(N=NC(=O)c3ccc(NS(=O)(=O)c4cccs4)cc3)c(O)[nH]c12 | 1.9 |
| CCCCCCCCCc1nc2sc3c(c2c(=O)n1NC(=O)c1ccccc1[N+](=O)[O-])CC(C)(C)OC3 | -3.31 |
| CCC(C)c1ccc(NC(=O)c2ccco2)cc1 (centres unmarked) | 13.2 |
| c1ccc(CSc2ccc(-c3cccnc3)nn2)nc1 | 8.14 |
| CC1(C)C(=O)Nc2ccccc2N1C(=O)CN1C(=O)NC(CCc2ccccc2)C1=O (centres unmarked) | 13.6 |
| CNCC(=O)Nc1ccc(Cl)c(C(F)(F)F)c1 | 7.5 |
| C/C(=N\NC(=O)c1ccccc1)c1ccc(N2CCCCC2)cc1 | 6.17 |
| Cc1[nH]c(=S)[nH]c(=O)c1CCCO | 10.4 |
| Cc1nc(NC(=O)c2cnccn2)ccc1Br | 12.4 |
| CCc1ccccc1NC(=O)CCC(=O)c1cccs1 | 9.05 |
| COCCNS(=O)(=O)c1cc(C)c(C)cc1C | 9.1 |
| O=C(CSc1ncccn1)N/N=C/c1cccc([N+](=O)[O-])c1 | 1.71 |
| Cc1sc2nc(SCc3ccc(C(=O)O)cc3)n(Cc3ccco3)c(=O)c2c1C | -10.8 |
| CC1=Nc2cc(C(=O)N3CCC4(CC3)OCCO4)ccc2Sc2ccc(Cl)cc21 | 34.4 |
| Cc1ccc(-c2csc(NC3OC(=O)c4ccccc43)n2)cc1 (centres unmarked) | 12.6 |
